Reference: patent US20180169228A1 (ZHUHAI ESSEX BIO PHARMACEUTICAL, published 2018)
Residue numbers refer to the chain shown, from its start.

T1: human VEGF165 (Human vascular endothelial growth factor 165, hVEGF165) (human, UniProt P15692 207-395)
T1 sequence: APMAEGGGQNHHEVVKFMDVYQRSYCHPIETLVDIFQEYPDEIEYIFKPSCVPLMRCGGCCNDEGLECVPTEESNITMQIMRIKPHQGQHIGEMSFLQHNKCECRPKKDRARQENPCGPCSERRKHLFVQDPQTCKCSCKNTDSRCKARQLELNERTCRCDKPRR

B1: heavy-chain antibody A80740 (Fc fusion)
heavy: EVQLVDSGGGLVQAGGSLRLSCAASGSISYVPDMHWYRQAPGQQRQLVATITRGGNTMYADSVKGRFTISRDNAKNTVYLQMTSLKPEDTAVYYCNADVWSSVLFKLVEYWGQGTQVTVSS[letters of human IgG1 Fc left out]
B2: heavy-chain antibody A69457 (Fc fusion)
heavy: B1 heavy with E1Q, Q3K, V5E, D6E, S29P, L104A, F105L, T115I
B3: heavy-chain antibody A69452 (Fc fusion)
heavy: B1 heavy with E1G, D6E, L11W, G16D, A23T, S29P, L104A, F105L, T115I
B4: heavy-chain antibody A80887 (Fc fusion)
heavy: QVKLEESGGGLVQTGGSLRLSCAASGRTFSSYAMGWFRQAPGKEREFVAAISWSGGHTYYADSAVDSVRGRFTISRGNAKNTVYLQMNNLKPEDTAVYYCAADFGTRLRFTTNDYQYWGQGTQVTVSS[letters of human IgG1 Fc left out]
B5: heavy-chain antibody A80726 (Fc fusion)
heavy: QVKLEESGGGLVQAGDSLRLSCTASGGTYSSGVMGWFRQAPGKERDFVASINWSGVTDYSDSVKGRFFISRDTAKSTVYLHMFSLKADDTAVYFCAAGSRWRANSGRHYDYWGQGTQVTVSS[letters of human IgG1 Fc left out]
B6: heavy-chain antibody A80744 (Fc fusion)
heavy: AVQLVESGGGLVQAGGSLRLSCAASGLNFRTYTIGWFRQAPGKEREFIVGITWGGGIIDSIDSMKGRATISRDNAENTVYLQMNSLKPEDTAVYSCAAGRNTGGYTRLWRSYDYWGQGTQVTVSS[letters of human IgG1 Fc left out]
B7: heavy-chain antibody A80723 (Fc fusion)
heavy: DVQLVESGGGLVQAGDSLRLSCAYSGATFSNNVMGWFRQAPGRARDFVAAFNGWSSVTEYADSVKGRFFVSRDNDKSTMYLQMINLKPDDTAVYFCAAGRRWRANRETHYDYWGQGTQVTVSS[letters of human IgG1 Fc left out]
B8: heavy-chain antibody A80730 (Fc fusion)
heavy: QVQLVESGGGLVQAGGSLRLSCAASGRAPETYAMGWFRQAPGKEREFVAHIIVTGDRTYYADSVKGRFTISRNNAKNTVYLQMNSLKPEDTAVYYCAADRSARWEPGTHYWGQGTQVTVSS[letters of human IgG1 Fc left out]
B9: heavy-chain antibody A69462 (Fc fusion)
heavy: QVQLVESGGGLVQAGGSLRLSCTDSGRTFGAYNMGWFRQAPGKEREFVAAINWSGISTYYTDSVKGRFTISRDNAKNTVCLQMNNLSPEDTAVYYCAANRGGNYEKVYLYNNWGQGTQVTVSS[letters of human IgG1 Fc left out]
B10: heavy-chain antibody A60724 (Fc fusion)
heavy: B9 heavy with D24A, A40T, C80Y
B11: heavy-chain antibody A80890 (Fc fusion)
heavy: QVKLEESGGGLVQAGGSLRLSCAASGSISHVPNMHWYRQAPGQKRQLVATITRGGNTMYADSVKGRFTISRENAKNTIYLQMTTLKPEDTAVYYCNADVWSSALFKYVEYWGQGTQVTVSS[letters of human IgG1 Fc left out]
B12: heavy-chain antibody A69458 (Fc fusion)
heavy: DVQLVDSGGGLVQPGGSLTLSCVLSGRPFSYYAVSWFRQAPGGEREFVAGISRSGGSVNFAGFVKGRFTVSRDNAKSAVNLQMNSLKREDTAVYYCAADTNVYASATLSNYAYWGQGTQVTVSS[letters of human IgG1 Fc left out]
B13: heavy-chain antibody A69451 (Fc fusion)
heavy: QVKLEESGGGLVQAGGSLRLSCAASGRTFSSYRLGWFRQAPGKEREFVAAISWKDDTTYYADSVKGRFTISRDNAKNTVYLQMNSLTPEDSAVYSCAARGYSRSWNPWSEYDYWGQGTRVTVSS[letters of human IgG1 Fc left out]

target: T1, human VEGF165 (Human vascular …); assay: cell-based or functional assay

Row | EC50 of HUVEC cell proliferation inhibition assay [µg/mL] | Binder
1 | 0.79 | B1
2 | 0.46 | B2
3 | 0.45 | B3
4 | 0.0588 | B4
5 | 0.122 | B5
6 | 0.176 | B6
7 | 0.114 | B7
8 | 0.211 | B8
9 | 0.0632 | B9
10 | 0.0267 | B10
11 | 0.642 | B11
12 | 0.12 | B12
13 | 0.557 | B13
